Test results reported in the supplement of paper PMC3334620.
In all, about 33,000 sequences were measured (“E-score (-0.5 to 0.5)”: median about -0.021, highest 2% from about 0.32 on). The list shows a part of the results.

Each sequence was assayed against T1, Zap1 (UniProt P47043) (assay: PBM E-score (8-mer binding enrichment) (E-score (-0.5 to 0.5)); higher = stronger / more preferred TF binding; most listed sequences are background and not binding sites). Settings: protein concentration: 200 nM; construct: GST-full length.
T1 sequence: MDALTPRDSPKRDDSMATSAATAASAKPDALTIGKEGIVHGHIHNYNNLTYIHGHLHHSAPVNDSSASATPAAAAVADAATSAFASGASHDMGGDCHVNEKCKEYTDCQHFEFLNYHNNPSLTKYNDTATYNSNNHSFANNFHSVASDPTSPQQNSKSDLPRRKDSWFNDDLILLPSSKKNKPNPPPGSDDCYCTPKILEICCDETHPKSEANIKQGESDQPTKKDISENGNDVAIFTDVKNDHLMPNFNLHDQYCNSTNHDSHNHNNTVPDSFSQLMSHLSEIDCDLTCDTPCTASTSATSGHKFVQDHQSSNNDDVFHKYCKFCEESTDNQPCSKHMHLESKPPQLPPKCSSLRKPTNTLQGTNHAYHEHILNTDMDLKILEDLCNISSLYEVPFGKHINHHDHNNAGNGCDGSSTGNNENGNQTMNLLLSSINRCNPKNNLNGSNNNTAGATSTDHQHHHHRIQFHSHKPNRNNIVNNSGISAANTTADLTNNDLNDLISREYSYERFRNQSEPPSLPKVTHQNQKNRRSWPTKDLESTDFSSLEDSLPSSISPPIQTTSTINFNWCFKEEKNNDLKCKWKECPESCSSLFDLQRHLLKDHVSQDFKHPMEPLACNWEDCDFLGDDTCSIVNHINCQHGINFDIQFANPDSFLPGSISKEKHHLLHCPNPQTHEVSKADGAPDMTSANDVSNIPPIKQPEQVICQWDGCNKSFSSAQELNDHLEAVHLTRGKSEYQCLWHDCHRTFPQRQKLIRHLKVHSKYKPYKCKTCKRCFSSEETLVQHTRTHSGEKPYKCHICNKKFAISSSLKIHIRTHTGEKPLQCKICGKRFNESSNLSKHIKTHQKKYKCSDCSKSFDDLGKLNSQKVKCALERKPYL
Summary of the method: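 Masliner-normalised scans of fluorescent anti-GST signal were the basis for scoring. That signal came from GST-tagged yeast transcription factors applied at about 100-200 nM to double-stranded universal all-10-mer Agilent arrays on fresh or once-stripped slides. Each ungapped eight-base word, pooled with its reverse complement, received an E-score from the Universal PBM Analysis Suite.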

Point of comparison: CGATCATA, “PBM E-score” value 0.0491. Against it:
- CCCAAGAG — higher, 0.0665
- AGAAGCCG — lower, -0.176
- GTGGTGTA — higher, 0.0957
- AGCGACTC — lower, -0.17
- GCTAGTCA — lower, -0.181
- CGCAGAGA — lower, -0.127
- GGTGAAAA — higher, 0.188
- AATAAATA — higher, 0.248
- AGAGGGGC — lower, -0.0969
- GCTGTAAC — higher, 0.235
- AATCACCC — higher, 0.307
- AAAGATAC — lower, 0.0365
- ACCGCCTC — higher, 0.105
- CAGATTTA — higher, 0.19
- ACGGGACA — lower, 0.0113
- AAGGCAAC — lower, 0.0268
- CTATTCAG — higher, 0.11
- AAGGTCGC — higher, 0.193
- ACAGATCT — lower, -0.0411
- AATTGAGG — higher, 0.219
- AAGATCCT — higher, 0.0919
- GCCCAAGA — lower, -0.197
- ATATATCA — lower, 0.0489
- GTGGTCCA — higher, 0.153
- GTGCATAA — higher, 0.0793
- ACCATGAA — higher, 0.221
- ACCAAACT — higher, 0.234
- GCTTCCAC — lower, -0.232
- AGTTGGCC — lower, -0.0785
- ATGCCAGA — lower, 0.029
- CGGGCGCC — lower, -0.225
- ATTAGATG — higher, 0.19
- CATTCAAC — higher, 0.101
- TAAGGGAA — lower, 0.00584
- CATCCGGC — lower, -0.256
- TTAAAGAA — higher, 0.223
- CGTTATAC — lower, -0.00572
- CCTCGGCC — higher, 0.0982
- ACACCCAC — higher, 0.0526
- CAAATAAG — lower, -0.0503
- AGTAACTA — higher, 0.219
- AGACACTC — lower, -0.199
- AGAACCGC — higher, 0.209
- TCACTAGA — lower, 0.0322
- CTTAGTCC — lower, -0.156
- CGTGTGGA — lower, -0.158
- TAGCCGAA — lower, 0.00265
- TACCGCTA — higher, 0.152
- CAGTAATG — higher, 0.0599
- ATACTCTA — lower, -0.0192
- GCAGTAAC — higher, 0.0575
- AACCCGTC — higher, 0.147
- GTCGCCGA — lower, -0.169
- ACTTCAAC — higher, 0.0925
- AAAAACTA — higher, 0.175
- GAGACACA — lower, 0.0212
- GACAAATA — lower, -0.0476
- AGGACTCG — lower, -0.134
- CAGGGATC — lower, -0.155
- ACCCGCAC — higher, 0.217
- TGATTGCA — lower, 0.0102
- AGGATTGC — lower, -0.224
- AAATCCCG — lower, -0.05
- CAGACGGG — lower, -0.292
- ATGATATC — lower, 0.00647
- CGCCGCTC — lower, -0.17
- ATGAGCCA — lower, -0.11
- CCCCACGC — lower, -0.0232
- GGATTAAC — lower, -0.0122
- CCCGCCTA — lower, -0.0132
- AAGCCCGA — lower, -0.16
- AATAAGAC — lower, -0.0873
- CGTCTAGC — lower, -0.21
- CGAGAATC — lower, -0.206
- ATCGACCA — lower, -0.143
- ACACAATC — lower, 0.00143
- TGTCAGAA — lower, -0.00066
- GCTACAAA — higher, 0.0887
- ATGCAACC — higher, 0.243
- ACGTTGAA — higher, 0.0592
- CATGCACG — lower, -0.246
- AAGGATGA — lower, -0.164
- CACTATTC — higher, 0.127
- CTGGACCA — lower, -0.0935
- AAGAGATG — lower, -0.16
- AAGTTCGG — higher, 0.0638
- GGTGCCAA — lower, 0.00512
- ACACTTGG — lower, 0.0219
- ATCGGCTC — lower, -0.0563
- ACTTCGAG — lower, 0.0218
- AGGTAGGG — higher, 0.219
- AAACATCA — higher, 0.0836
- GACCTTGA — higher, 0.34
- AGACGTTA — lower, -0.175
- AGAATTCC — lower, 0.00254
- CTAGCTCA — lower, -0.147
- AGTATGCC — lower, -0.175
- CATGGATC — lower, -0.0514
- AGGAGCAA — lower, -0.151
- CTGGTCGA — lower, -0.211
- AATTCGAA — lower, 0.0449
- GATAGTTA — higher, 0.0641
- ACGGTTTC — lower, -0.0123
- ACGTCTCA — lower, -0.0794
- GCACATAC — lower, -0.275
- CACGTGAG — lower, -0.116
- GCCCGATA — lower, -0.109
- CCGCAAAG — lower, 0.046
- CGTAGTAA — lower, -0.07
- AATCCAGG — higher, 0.0899
- AATGCGAT — lower, -0.162
- ACAGACGA — lower, -0.102
- TCCGAGCA — lower, -0.0445
- CCAAAGGC — lower, -0.141
- ACCTAGCA — lower, 0.036
- AAGATATG — higher, 0.127
- GAAGGCAA — lower, -0.0731
- AGCCAATC — lower, -0.277
- GCTATGAC — lower, -0.129
- ACGTCAGC — lower, -0.143
- CCGTCACG — lower, -0.0299
- GAGTGGAA — lower, -0.0794
- AGGGCCAA — lower, -0.187
- AGCCCATC — lower, -0.153
- ACGACACT — lower, -0.0276
- ACAGTCGC — lower, -0.115
- CCACTCTC — lower, -0.14
- AGGCTCGA — lower, -0.18
- CCGACCAA — lower, -0.0126
- GGGCAGCA — lower, -0.212
- GCAAGACA — lower, -0.115
- CTGTCGAC — lower, -0.0341
- GTTAATAA — higher, 0.232
- CCACGGCG — lower, 0.00048
- TGGCCCAA — lower, 0.0284
- ACGAGTGG — lower, -0.0531
- AGTGATTG — lower, -0.0184
- CCGGTGGA — lower, -0.19
- ACGTCGTA — lower, -0.287
- ATTCTAGA — higher, 0.0739
- AAGGTAGG — higher, 0.179
- GAGGAAAA — lower, -0.0396
- GGACGCCC — lower, -0.25
- CAGGTCAA — higher, 0.0665
- TGGTGAAA — lower, -0.052
- AAACACTG — higher, 0.154
- AACGGTCT — lower, 0.0201
- CCAGGTCG — lower, -0.102
- TAAAACCA — higher, 0.0656
- GCATGCAA — lower, -0.105
- ATCTGCGC — lower, -0.22
- ACGCGCTA — higher, 0.0844
- CAGGCAAG — lower, -0.114
- CGCCGCCC — lower, -0.0572
- CTGCAGCA — lower, -0.182
- CTTCAGTA — lower, 0.0193
- GGGTCTAC — higher, 0.183
- GGTCAGGA — higher, 0.305
- GGATAGCA — lower, -0.13
- CTTCCTAC — lower, -0.279
- CTGTTAGA — lower, -0.0791
- CTAACTTA — lower, -0.0108
- ATAGTGTG — lower, -0.106
- GAACCAGC — higher, 0.154
- GCACCTGC — lower, -0.16
- CACGGATC — lower, -0.183
- ACCTAAAT — higher, 0.183
- ATCGCAGA — lower, -0.134
- ACTAAGCG — lower, -0.156
- GTGAGTGA — lower, -0.147
- ACCCTAAC — higher, 0.414
- GCCAAAGC — lower, -0.213
- ATCGTTTG — lower, 0.0376
- AATGATAG — lower, -0.0146
- GACTACAC — lower, -0.139
- AAATGGTC — higher, 0.207
- TACCGACA — lower, -0.00804
- ATCTCAGC — lower, -0.0588
- CGCATTCC — lower, -0.379
- AAAGCCAT — lower, -0.0283
- CACAGGGC — lower, -0.142
- CACGGCAA — lower, -0.14
- AACATCAG — lower, -0.0261
- TACGGAAA — higher, 0.0818
- CGTGCCCA — lower, -0.0639
- GCGAGCCC — lower, -0.109
- AATAGTCG — lower, -0.0275
- CGGTAACA — higher, 0.253
- CCTAGATA — lower, -0.0485
- GCCCGTGA — lower, -0.131
- CTGTAGGA — lower, -0.00692
- AGAGCCAC — lower, -0.0676
- AAGCACTT — lower, -0.0713
- AAGAGGCG — lower, -0.0798
- GCCTAGCC — lower, -0.172
- CGTGACCA — higher, 0.35
- AGCTCATA — lower, -0.0535
- ACACAACT — higher, 0.108
- AGCATTGA — lower, -0.157
- TTCGTAAA — lower, -0.0151
- AGGGAGCA — lower, -0.368
- AGTGCGCG — lower, -0.185
- GTGATCAA — higher, 0.128
- CTAATGAG — lower, -0.0274
- ATGTTACC — higher, 0.23
- ATAGCACG — lower, -0.242
- CCGCACGA — lower, 0.0224
- CCCATGAC — higher, 0.165
- AAGGTATT — higher, 0.199
- AAAACGTT — higher, 0.0662
- ACCGGATA — higher, 0.0737
- CAATAGTC — lower, -0.102
- GGCAGGCA — lower, -0.189
- GTGGACTA — higher, 0.118
- CCTCAAGC — lower, -0.133
- AAGCGGTG — lower, -0.229
- GTGCGGGA — lower, -0.306
- ACGCGCCT — lower, -0.156
